# Reference: patent US20230095701A1, “Use of Albiflorin in Treatment of Coronavirus Pneumonia” (priority 2020, published 2023)
# Test system: intestinal flora
# Experiment: Intestinal flora function and structure in CUMS rats (metabolomics, 16sDNA high-throughput metagenomic sequencing)
# Conditions: 7 mg/kg/d, 7 days, FIG. 13
smiles,measurement,value
C[C@]12C[C@@H](O)[C@@H]3C[C@@]1(O[C@@H]1O[C@H](CO)[C@@H](O)[C@H](O)[C@H]1O)[C@@]3(COC(=O)c1ccccc1)C(=O)O2 [Albiflorin],"intestinal flora metabolism, multiple comparison analysis (PLS-DA)",almost completely overlapped with the blank control group
